Article PMC3684423 (Structure (London, England : 1993), 2012)
Where no end group is shown, it is not given here. [ ]: non-standard residue; d: D form. pT = C[C@@H](OP(=O)(O)O)[C@H](N)C(=O)O

T1: H3(1–15)T3ph peptide (UniProt P68431 part only)
T1 peptide (looked up): AR[pT]KQTARKSTGGKA

T2: unmodified H3(1–10) peptide (UniProt P68431 2-11)
T2 peptide (looked up): ARTKQTARKS

B1: Survivin D71A mutant (natural protein)
chain: not shown
B2: Survivin E51A mutant (natural protein)
chain: not shown
B3: Survivin K62A mutant (natural protein)
chain: not shown
B4: Survivin E76A mutant (natural protein)
chain: not shown
B5: Survivin E65A mutant (natural protein)
chain: not shown
B6: Survivin(K62Y/H80W) double mutant (natural protein)
chain: not shown

Tests used:
H3(1–15)T3ph peptide = target: T1, H3(1–15)T3ph peptide; experiment: ITC
[1] = target: T2, unmodified H3(1–10) peptide; experiment: ITC

Binder | dH (H3(1–15)T3ph peptide) | stoichiometry N (H3(1–15)T3ph peptide) | dH [1] | stoichiometry N [1]
B1 | -6.21 ± 0.8 kcal/mol | 0.83 ± 0.09 |  | 
B2 | -6.26 ± 0.26 kcal/mol | 0.97 ± 0.03 |  | 
B3 | -5.16 ± 0.13 kcal/mol | 0.84 ± 0.02 | -7.71 ± 0.64 kcal/mol | 0.92 ± 0.06
B4 | -6.4 ± 0.6 kcal/mol | 0.91 ± 0.06 |  | 
B5 | -4.89 ± 0.35 kcal/mol | 0.83 ± 0.05 |  | 
B6 |  |  | -3.52 ± 0.06 kcal/mol | 0.85 ± 0.01
